The supplement of paper PMC4967469
A lower IC50 marks a more sensitive line; fits outside the tested doses are given as limits. The AUC spans the tested range (256-fold, ending at the top dose) of the same fit; it is 1 without any effect and falls as sensitivity rises. For part of these data: Where the top dose is marked as inferred, it comes from the curve model; the source does not state it. For part of these data: Drugs with an entry number were screened twice under separate entries, and the two screens often disagree.

What was measured:
Assay in all cases: Viability of human cancer cell lines after 72 h of drug (GDSC screen)
[1] = compound: Cc1ccc(C(=O)N(CCCN)[C@@H](c2nc3cc(Cl)ccc3c(=O)n2Cc2ccccc2)C(C)C)cc1 [SB-715992]; conditions: top dose 0.128 µM; top dose inferred
Protocol: (§1)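 Human cancer cell lines in 384-well plates, medium with 10% serum, drug for 72 h over a 256-fold dose range (nine 2-fold or five 4-fold steps up to the top dose). Adherent lines were fixed and stained with the nucleic acid dye Syto60, suspension lines read with resazurin; signal relative to control wells, capped at 0 and 100%. One two-parameter sigmoid per drug and line, fitted in a mixed model over all curves with the slope shared within a line.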

[2] = compound: CN1CCN(c2ccc([N+](=O)[O-])c3no[n+]([O-])c23)CC1 [NSC-207895]; conditions: top dose 20 µM; top dose inferred
Protocol: as §1

[3] = compound: COc1cc(N2CCC(N3CCN(C)CC3)CC2)ccc1Nc1ncc(Cl)c(Nc2ccccc2S(=O)(=O)C(C)C)n1 [NVP-TAE684]; conditions: top dose 2 µM
Protocol: as §1

[4] = compound: CC1(C)CNc2cc(NC(=O)c3cccnc3NCc3ccncc3)ccc21 [AMG-706]; conditions: top dose 2 µM; top dose inferred
Protocol: as §1

[5] = compound: C[C@]1(O)C[C@@H](c2nc(-c3ccc4ccc(-c5ccccc5)nc4c3)c3c(N)nccn32)C1 [OSI-906]; conditions: top dose 2.56 µM; top dose inferred
Protocol: as §1

[6] = compound: CC(=O)O[C@@]12CO[C@@H]1C[C@H](O)[C@@]1(C)C(=O)[C@H](O)C3=C(C)[C@@H](OC(=O)[C@H](O)[C@@H](NC(=O)OC(C)(C)C)c4ccccc4)C[C@@](O)([C@@H](OC(=O)c4ccccc4)[C@H]21)C3(C)C [Docetaxel]; conditions: top dose 0.0125 µM
Protocol: as §1

[7] = compound: OCCCNc1cc(-c2ccnc(Nc3cccc(Cl)c3)n2)ccn1 [CGP-60474]; conditions: top dose 0.256 µM; top dose inferred
Protocol: as §1

[8] = compound: c1ccc2c(CCNc3ccc(Nc4ccncc4)cc3)c[nH]c2c1 [JNJ-26854165]; conditions: top dose 10 µM
Protocol: as §1

[9] = compound: COC(=O)[C@H](CCSC)NC(=O)c1ccc(NC[C@@H](N)CS)cc1-c1ccccc1 [FTI-277]; conditions: top dose 1.024 µM; top dose inferred
Protocol: as §1

[10] = compound: CC1=C2C[C@H]3[C@@H](CC=C4C[C@@H](O)CC[C@@]43C)[C@@H]2CC[C@]12O[C@@H]1C[C@H](C)CN[C@H]1[C@H]2C [Cyclopamine]; conditions: top dose 16 µM; top dose inferred
Protocol: as §1

[11] = compound: Cc1sc2c(c1C)C(c1ccc(Cl)cc1)=N[C@@H](CC(=O)OC(C)(C)C)c1nnc(C)n1-2 [JQ1]
Protocol: as §1

[12] = compound: CCOc1nc(NC(=O)Cc2cc(OC)ccc2OC)cc(N)c1C#N [JNK Inhibitor VIII]; conditions: top dose 10 µM; top dose inferred
Protocol: as §1

[13] = compound: O=C(/C=C/c1cccc(S(=O)(=O)Nc2ccccc2)c1)NO [Belinostat]; conditions: top dose 20 µM; top dose inferred
Protocol: as §1

[14] = compound: COCC[n+]1c2c(n(Cc3cnccn3)c1C)C(=O)c1ccccc1C2=O [YM155]; conditions: top dose 5.12 µM
Protocol: as §1

[15] = top dose 1 µM, screen: GDSC drug entry 1218, top dose inferred
[16] = top dose 2.56 µM, screen: GDSC drug entry 163

Cell Line	AUC [1]	IC50 [1] [nM]	AUC [2]	IC50 [2] [nM]	AUC [3]	IC50 [3] [nM]	AUC [4]	IC50 [4] [nM]	AUC [5]	IC50 [5] [nM]	AUC [6]	IC50 [6] [nM]	AUC [7]	IC50 [7] [nM]	AUC [8]	IC50 [8] [nM]	AUC [9]	IC50 [9] [nM]	AUC [10]	IC50 [10] [nM]	AUC [11, 15]	IC50 [11, 15] [nM]	AUC [11, 16]	IC50 [11, 16] [nM]	AUC [12]	IC50 [12] [nM]	AUC [13]	IC50 [13] [nM]	AUC [14]	IC50 [14] [nM]
HSC-39 (stomach, suspension)	0.636	17.9	0.86	13200	0.69	390	0.976	> 2000	0.991	> 2560	0.74	3.35	0.784	92.9	0.817	4640	0.991	> 1020	0.985	> 16000	0.958	> 1000	0.991	> 2560	0.991	> 10000				
KARPAS-231 (B-cell leukaemia, suspension)					0.867	1150	0.994	> 2000	0.991	> 2560	0.876	7.74	0.578	24.8	0.636	1350	0.992	> 1020	0.955	> 16000	0.994	> 1000	0.593	270	0.994	> 10000				
MOLM-13 (acute myeloid leukaemia, suspension)	0.609	15.6	0.783	7870	0.569	191	0.925	> 2000	0.976	> 2560	0.843	8.03	0.639	37.6	0.557	885	0.981	> 1020	0.912	> 16000					0.978	> 10000	0.273	296	0.021	< 20
NALM-6 (B-cell leukaemia, suspension)	0.513	8.65	0.77	6420	0.729	492	0.988	> 2000	0.928	> 2560	0.987	> 12.5	0.671	43.9	0.97	> 10000	0.991	> 1020	0.841	8620					0.986	> 10000	0.15	136	0.015	< 20
NB17 (neuroblastoma, adherent)	0.978	> 128	0.761	8100	0.784	983	0.984	> 2000			0.704	3.23	0.751	95.9	0.783	4880	0.983	> 1020	0.98	> 16000			0.83	1960	0.912	> 10000	0.836	16100	0.338	106
OPM-2 (myeloma, suspension)	0.592	13.6	0.986	> 20000	0.61	236	0.989	> 2000	0.889	1980	0.994	> 12.5	0.795	95.2	0.987	> 10000	0.993	> 1020	0.972	> 16000					0.994	> 10000	0.288	361	0.066	< 20
SK-N-FI (neuroblastoma, adherent)	0.865	112	0.97	> 20000	0.903	> 2000	0.959	> 2000	0.885	> 2560	0.937	> 12.5	0.905	> 256			0.989	> 1020	0.99	> 16000	0.976	> 1000	0.923	> 2560	0.968	> 10000	0.448	903	0.902	> 5120
VA-ES-BJ (soft tissue, adherent)	0.958	> 128	0.605	2470	0.849	1640	0.964	> 2000			0.479	0.68	0.613	33.3	0.861	9290	0.98	> 1020	0.982	> 16000	0.911	> 1000	0.706	634	0.967	> 10000	0.651	3350	0.031	< 20
VCaP (prostate, adherent)	0.855	109	0.872	> 20000	0.589	221	0.984	> 2000	0.447	114	0.595	1.44	0.779	109	0.728	2870	0.982	> 1020	0.985	> 16000					0.987	> 10000	0.171	119	0.081	< 20
